Measured values: ChEMBL document CHEMBL5308541, “MAIP: An Open-Source Tool to Enrich High-Throughput Screening Output and Identify Novel, Druglike Molecules with Antimalarial Activity” (ACS Med Chem Lett, 2023)
Hit rate of the full screen: of about 150,000 compounds, about 540 (0.36%) showed an effect of 50% or more. The list shows a part of the results.

test system: Plasmodium falciparum; assay: Primary screen in NF54 nanoGlo assay, in single point, at 2uM, 72h; a lower Z score goes with more inhibition; type: functional, Erythrocyte; conditions: timepoint 72 hour

SMILES	% Inhibition [%]	Z score
CC1(C)CC(Nc2nc3cc(F)ccc3o2)CC(C)(C)N1	-1	0.1
Nc1nc(NCCN2CCCC[C@@H]2CO)c2cc(C(=O)O)ccc2n1	-8	1.48
O[C@@H]1C[C@H](O)CN(c2ncc(Cl)c(Nc3ccc(F)cc3)n2)C1	-2	0.34
C[C@]1(c2nc(-c3c[nH]c4ncc(Br)cc34)no2)CCN(C(=O)OCc2ccccc2)C1	0	0.07
O=C(CN1CCCN(CC2CCCCC2)CC1)NCc1ccc(OC(F)F)cc1	-3	0.56
Cc1c(C(=O)N2CC(CO)C(CN3CCCCCC3)C2)[nH]c2ccccc12 (configuration not stated)	-8	1.39
CN1CCC(NC(=O)c2cccc(-c3ccc(F)c(C#N)c3)c2)CC1	-4	0.71
CC(C)(C)c1nccc(Nc2ccc3[nH]ncc3c2)n1	-10	1.47
COCCN1CCC(CNC(=O)NC2CCN(C3CCCCC3)CC2)CC1	4	-0.74
O=C(O)CCN1CCN(CC2CCCCC2)C2CS(=O)(=O)CC21 (configuration not stated)	-9	1.54
CC(C)(O)c1cncc(-c2ccc(-c3ccn[nH]3)cc2)c1	-12	2.68
c1csc(CN2CCC[C@H](Nc3nccc(-c4ccncc4)n3)C2)c1	0	-0.03
COc1ccc(C(=O)C(c2c(C)[nH]c3ccccc23)c2c(C)[nH]c3ccccc23)cc1	-9	1.38
OC1CCN(c2ccc(Nc3cnc4ccccc4n3)cc2)CC1	-8	1.41
O=C(NC[C@H]1CCCN(C(=O)c2cc(-c3ccsc3)[nH]n2)C1)c1cnccn1	-4	0.81
CCC(CC)(CNC(=O)OC(C)(C)C)NCc1n[nH]cc1C	9	-1.93
O=C(CN1CC2CC(C1)C1CCCC(=O)N1C2)N1CCC(N2CCCCC2)CC1 (configuration not stated)	7	-1.12
Cn1cc(-c2c(-c3ccccc3)ncn2CCCN(CCO)CCO)cn1	-4	0.76
Cc1cc(N2CCC(NCCc3cn[nH]c3)CC2)nc(N2CCCCC2)n1	11	-2.41
O=C(c1cc2cc(Cl)ccc2[nH]1)N1C2CCC1CC(O)(Cc1ccc(F)cc1F)C2 (configuration not stated)	-9	1.52
Cc1cnn(C[C@H]2CN(C(=O)NCc3cn4c(n3)CCCC4)CCO2)c1	4	-0.91
COc1ccc(CNC(=O)[C@@H]2CCCN2C2CCN(CC(F)(F)F)CC2)cn1	0	0.01
NC(=O)c1ccc(-c2nc3c(c(NCCN4CCOCC4)n2)CCNC3)cc1	2	-0.44
C[C@@H]1Oc2c(cccc2C(=O)NC2(c3nccs3)CCCC2)NC1=O	-5	1.12
CCc1cc2c(Nc3ccc4[nH]nc(C(N)=O)c4c3)ncnc2s1	-17	3.31
CS(=O)(=O)C[C@@H](O)CNc1ncnc2sccc12	2	-0.3

SMILES	% Inhibition [%]	Z score
C[C@@H](CN1CCc2ccccc2C1)NC1CCN(c2cc(C#N)ccn2)CC1	5	-0.77
Cc1cccc(N2CCN(CC[C@H](C)NCc3csc(-c4ncccn4)n3)CC2)c1	-12	2.19
CCN1CC[C@H](CNCc2csc(-c3ccsc3)n2)C1	4	-0.73
OC1(Cn2ccnc2)CCN(Cc2ccnc3ccccc23)CC1	-5	0.98
CC(C)(O)C#Cc1ccc(C(=O)NC[C@H]2CC(=O)N(C3CC3)C2)o1	0	0.05
C[C@]1(c2ccc(Cl)cn2)Oc2cccc(C3CCN(Cc4nc5ccc(C(=O)O)cc5n4C[C@@H]4CCO4)CC3)c2O1.NC(CO)(CO)CO [LOTIGLIPRON TROMETHAMINE]	-2	0.37
Cc1ccc2nc(-c3cccc(NC(=O)c4ccc(OC(F)(F)F)c(Cl)c4)c3)[nH]c2n1	57	-12.27
CCN(C(=O)CN[C@](C)(CNC(=O)OC(C)(C)C)CC(C)C)C1CC1	8	-1.73
O=C(O)CC1(NC(=O)CCn2cnnc2)CCCCC1	-13	2.31
CCOc1cccc(C2CC2Nc2cc(-n3ccnc3)ncn2)c1 (configuration not stated)	7	-1.31
CNC(=O)c1cc2cc(N[C@H]3CCN(C4CCOCC4)C3=O)ccc2[nH]1	-8	1.64
CN(Cc1ccccc1)c1nc(-c2c[nH]c3ccccc23)cs1	5	-0.96
C(=Cc1nc2ccccc2o1)c1ccc(OCCN2CCCC2)cc1	6	-0.87
c1cnc(NC2COCC2N2CCCC2)c(-c2ncon2)c1 (configuration not stated)	2	-0.42
O[C@H]1CCN(c2ccnc(NCC3(c4ccc(F)cc4)CCCC3)n2)C1	4	-0.64
COCCN1CCN(c2cc(Oc3cccc(F)c3)ncn2)CC1	10	-1.76
CN(C)c1cccc(Oc2ccc(C#N)cc2)c1	-7	1.37
CN(C)C1CCN(C(C)(C)CNCc2cccc3[nH]ncc23)CC1	-2	0.34
COc1cc(OC)c2nc(NC[C@@H](c3cccnc3)N3CCCCC3)cc(C)c2c1	-3	0.38
N#Cc1ccccc1N1CCN(C2CCN(c3ccc(F)c(F)c3)CC2)CC1	-4	0.64
COCc1cc(CNC(=O)N2CCC[C@H](Cc3nc4ccccc4[nH]3)C2)[nH]n1	-2	0.38
CCCCC[C@@H]1NC(=O)N(c2nnn(Cc3noc(C)n3)c2C)C1=O	-3	0.69
Cc1cc(NC(=O)c2cc(-c3cccnc3)on2)cc(N2CCN(C)CC2)c1	-9	1.62
Cc1ccnc(Nc2cc(N3CCN(C(=O)[C@@H]4CCC(=O)N4)CC3)nc(C)n2)c1	-4	0.77
O=C(NC1(CN2CCCCC2)CCCCC1)N1CCN(c2ccncc2)CC1	2	-0.27
